{"source": "EPA's CvTdb concentration-time database", "key": {"Rat [1]": {"tested_on": "Rat", "test": "concentration in brain after dosing", "details": "1.5 h; dosed: alpha/beta-Thujone mixture; 25 mg/kg; oral; Female; F344"}, "Rat [2]": {"tested_on": "Rat", "test": "concentration in brain after dosing", "details": "0.5 h; dosed: alpha/beta-Thujone mixture; 25 mg/kg; oral; Male; F344"}, "Rat [3]": {"tested_on": "Rat", "test": "concentration in brain after dosing", "details": "10 min; dosed: alpha/beta-Thujone mixture; 50 mg/kg; oral; Female; F344"}, "Rat [4]": {"tested_on": "Rat", "test": "concentration in plasma after dosing", "details": "1.5 h; dosed: 76231-76-0; 3.0 mg/kg; iv; Female; F344"}, "Rat [5]": {"tested_on": "Rat", "test": "concentration in plasma after dosing", "details": "1.5 h; dosed: alpha/beta-Thujone mixture; 50 mg/kg; oral; Male; F344"}, "Rat [6]": {"tested_on": "Rat", "test": "concentration in plasma after dosing", "details": "0.5 h; dosed: 76231-76-0; 3.0 mg/kg; iv; Female; F344"}, "Rat [7]": {"tested_on": "Rat", "test": "concentration in plasma after dosing", "details": "3 h; dosed: alpha/beta-Thujone mixture; 25 mg/kg; oral; Female; F344"}, "Rat [8]": {"tested_on": "Rat", "test": "concentration in plasma after dosing", "details": "1.5 h; dosed: alpha/beta-Thujone mixture; 25 mg/kg; oral; Male; F344"}, "Rat [9]": {"tested_on": "Rat", "test": "concentration in plasma after dosing", "details": "10 min; dosed: alpha/beta-Thujone mixture; 50 mg/kg; oral; Male; F344"}, "Rat [10]": {"tested_on": "Rat", "test": "concentration in plasma after dosing", "details": "2 h; dosed: 76231-76-0; 3.0 mg/kg; iv; Female; F344"}, "Rat [11]": {"tested_on": "Rat", "test": "concentration in plasma after dosing", "details": "12 h; dosed: alpha/beta-Thujone mixture; 50 mg/kg; oral; Female; F344"}, "Rat [12]": {"tested_on": "Rat", "test": "concentration in plasma after dosing", "details": "12 h; dosed: alpha/beta-Thujone mixture; 50 mg/kg; oral; Male; F344"}, "Rat [13]": {"tested_on": "Rat", "test": "concentration in liver after dosing", "details": "6744 h; dosed: 3,3',4,4',5-pentachlorobiphenyl; 1000 mg/kg; oral; Female; Harlan Sprague Dawley"}, "Rat [14]": {"tested_on": "Rat", "test": "concentration in liver after dosing", "details": "8184 h; dosed: 3,3',4,4',5-pentachlorobiphenyl; 1000 mg/kg; oral; Male; Harlan Sprague Dawley"}, "Rat [15]": {"tested_on": "Rat", "test": "concentration in liver after dosing", "details": "8 h; dosed: 3,3',4,4',5-pentachlorobiphenyl; 1000 mg/kg; oral; Female; F344"}, "Rat [16]": {"tested_on": "Rat", "test": "concentration in liver after dosing", "details": "120 h; dosed: 3,3',4,4',5-pentachlorobiphenyl; 1000 mg/kg; oral; Female; Harlan Sprague Dawley"}, "Rat [17]": {"tested_on": "Rat", "test": "concentration in liver after dosing", "details": "3 h; dosed: 3,3',4,4',5-pentachlorobiphenyl; 1000 mg/kg; oral; Female; F344"}, "Rat [18]": {"tested_on": "Rat", "test": "concentration in liver after dosing", "details": "1.5 h; dosed: 3,3',4,4',5-pentachlorobiphenyl; 1000 mg/kg; oral; Female; F344"}, "Rat [19]": {"tested_on": "Rat", "test": "concentration in liver after dosing", "details": "8 h; dosed: 3,3',4,4',5-pentachlorobiphenyl; 1000 mg/kg; oral; Female; F344", "remark": "listed apart in the source"}}, "note": "Further values from the same series stand in other lists."}
{"smiles": "CC(C)[C@]12CC(=O)[C@H](C)[C@H]1C2", "note": "[alpha-Thujone]", "values": [{"measurement": "concentration in brain", "setting": "Rat [1]", "result": 492, "unit": "ng/g"}, {"measurement": "concentration in brain", "setting": "Rat [2]", "result": 511, "unit": "ng/g"}, {"measurement": "concentration in brain", "setting": "Rat [3]", "result": 3450, "unit": "ng/g"}, {"measurement": "concentration in plasma", "setting": "Rat [4]", "result": 12.2, "unit": "ng/mL"}, {"measurement": "concentration in plasma", "setting": "Rat [5]", "result": 339, "unit": "ng/mL"}, {"measurement": "concentration in plasma", "setting": "Rat [6]", "result": 69.6, "unit": "ng/mL"}, {"measurement": "concentration in plasma", "setting": "Rat [7]", "result": 186, "unit": "ng/mL"}, {"measurement": "concentration in plasma", "setting": "Rat [8]", "result": 133, "unit": "ng/mL"}, {"measurement": "concentration in plasma", "setting": "Rat [9]", "result": 550, "unit": "ng/mL"}, {"measurement": "concentration in plasma", "setting": "Rat [10]", "result": 12.6, "unit": "ng/mL"}, {"measurement": "concentration in plasma", "setting": "Rat [11]", "result": 11.5, "unit": "ng/mL"}, {"measurement": "concentration in plasma", "setting": "Rat [12]", "result": 17.6, "unit": "ng/mL"}]}
{"smiles": "Clc1ccc(-c2cc(Cl)c(Cl)c(Cl)c2)cc1Cl", "note": "[3,3',4,4',5-pentachlorobiphenyl]", "values": [{"measurement": "concentration in liver", "setting": "Rat [13]", "result": 1170, "unit": "pg/g"}, {"measurement": "concentration in liver", "setting": "Rat [14]", "result": 1340, "unit": "pg/g"}, {"measurement": "concentration in liver", "setting": "Rat [15]", "result": 15500, "unit": "pg/g"}, {"measurement": "concentration in liver", "setting": "Rat [16]", "result": 8550, "unit": "pg/g"}, {"measurement": "concentration in liver", "setting": "Rat [17]", "result": 7700, "unit": "pg/g"}, {"measurement": "concentration in liver", "setting": "Rat [18]", "result": 2560, "unit": "pg/g"}, {"measurement": "concentration in liver", "setting": "Rat [19]", "result": 12000, "unit": "pg/g"}]}
